Reference: PubChem BioAssay AID1476 (National Center for Advancing Translational Sciences (NCATS), 2009)
Screen size: about 200,000 compounds; about 4,500 (2.2%) were called active. Inconclusive means that the source gave no clear call. Such entries were picked first, then a sample of the others. Calls come from the whole dose curve; as a rule, active = well fitted inhibition curve with a large enough effect; inconclusive = small, poorly fitted or top-dose-only effect, or effect the other way; inactive = flat fitted curve, though single readings scatter. Where the call is inconclusive, the potency comes from a doubtful curve fit.
Note: nearly all actives have a fitted effect of over 40% in size.
Potency is the fitted concentration of half-maximal effect; tags give direction and shape of the fitted curve.
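Throughout, for max response, negative = inhibition: plate controls were enzyme without inhibitor for no effect and buffer without enzyme for full effect.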

The molecules below were run against Cruzipain (Trypanosoma cruzi) (UniProt P25779) (assay: qHTS Assay for Promiscuous and Specific Inhibitors of Cruzain (without detergent)). Settings: purified cruzain, Z-FR-AMC fluorescence, no detergent.
UniProt P25779, sequence (P25779 whole entry, looked up): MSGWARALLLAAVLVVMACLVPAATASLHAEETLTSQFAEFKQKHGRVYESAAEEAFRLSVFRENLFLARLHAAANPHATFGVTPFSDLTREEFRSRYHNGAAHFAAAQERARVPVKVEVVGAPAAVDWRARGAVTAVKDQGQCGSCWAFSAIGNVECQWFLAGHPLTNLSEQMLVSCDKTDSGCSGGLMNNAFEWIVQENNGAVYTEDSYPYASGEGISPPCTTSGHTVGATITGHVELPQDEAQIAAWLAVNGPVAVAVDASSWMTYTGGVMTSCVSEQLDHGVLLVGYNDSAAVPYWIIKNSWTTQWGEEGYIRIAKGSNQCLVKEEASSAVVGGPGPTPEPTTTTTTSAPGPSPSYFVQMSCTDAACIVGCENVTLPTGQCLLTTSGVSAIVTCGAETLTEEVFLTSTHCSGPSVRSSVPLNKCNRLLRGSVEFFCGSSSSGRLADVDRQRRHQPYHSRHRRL
Method in brief: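 Purified cruzain at 1.5 nM, pre-incubated 15 min with compound at room temperature in 100 mM sodium acetate pH 5.5, 5 mM DTT, 0.00005% Triton X-100. Reaction started with 2 uM Z-FR-AMC; AMC fluorescence increase over 60 s gives rate.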
With `COc1ccccc1N1CCN(C(=O)c2cccc(N3C(=O)NC4CC3(C)Oc3ccccc34)c2)CC1` (stereo unspecified) the Potency was inconclusive: 31.6 µM [activator, partial curve]. With `CCOC(=O)c1ccccc1NC(=O)CSc1nnc(CC)n2c1cc1occc12` the max response, negative = inhibition was inactive: -8.94%. In the case of `CS(=O)(=O)c1ccccc1-c1nc(-c2ccc(C(F)(F)F)cc2)no1`, the Potency is reported as inconclusive: 39.8 µM [activator, single point]. `COc1ccc(NC(C)=O)cc1NC(C)C(=O)Nc1cc(C(F)(F)F)ccc1N1CCOCC1` (stereo unspecified) was tested, and the Potency was inconclusive: 39.8 µM [activator, single point]. In the case of `Cc1nc(NC(=O)c2ccc(-c3cc4ccccc4oc3=O)cc2)ccc1Br`, the Potency is reported as inconclusive: 5.01 µM [inhibitor, single point]. For `O=C(c1csnn1)N1CCC2(CC1)CN(c1ccncc1)C2`, the max response, negative = inhibition was inactive: -24.1%. In the case of `COc1cc(CN(C(=O)c2ccc(OC(C)C)cc2)c2ccccn2)cc(OC)c1OC`, the Potency is reported as inconclusive: 31.6 µM [activator, single point]. `COc1ccc(/C=N/NC(=O)c2csc(-n3nc(C)cc3C(F)(F)F)n2)cc1` was tested, and the Potency was inconclusive: 31.6 µM [activator, partial curve]. `Cc1cccc(-n2cnc3cc(C(=O)NCc4ccccc4Cl)ccc32)c1` was tested, and the max response, negative = inhibition was inactive: -0.924%. With `Cc1ccc(C(C)C)c(OCC(=O)Nc2cc(-c3nc4ccccc4[nH]3)ccc2C)c1` the max response, negative = inhibition was inactive: 25.6%. In the case of `COc1ccc(C2c3c(ncn(Cc4ccco4)c3=N)Oc3ccc4ccccc4c32)cc1` (stereo unspecified), the Potency is reported as inconclusive: 39.8 µM [inhibitor, single point]. With `COc1ccccc1NC(=O)c1cc2c(=O)n(Cc3cccs3)ccc2nc1C` the Potency was inconclusive: 39.8 µM [activator, single point]. For `O=C(c1cnccn1)N1CCC2(CC1)CN(Cc1ccccc1)C2`, the max response, negative = inhibition was inactive: 6.18%. With `Cc1cc2c(cc1S(=O)(=O)Nc1ccc(C(C)C)cc1)OCCN2C` the max response, negative = inhibition was inactive: 13%. With `CC(Sc1nc2cc(Cl)ccc2s1)C(=O)Nc1cccc(S(=O)(=O)N2CCOCC2)c1` (stereo unspecified) the Potency was inconclusive: 31.6 µM [inhibitor, single point]. In the case of `COc1ccc(N(CC(=O)Nc2cc(OC)cc(OC)c2)S(=O)(=O)c2c(C)noc2C)cc1`, the max response, negative = inhibition is reported as inactive: 4.41%. `Cc1oc(-c2ccccc2F)nc1Cn1c(SCc2cccc(C(F)(F)F)c2)nc2ccncc21` was tested, and the Potency was inconclusive: 20 µM [activator, single point]. In the case of `O=C(Nc1ccccc1F)c1cnc(N2CCCCC2)c2ccccc12`, the max response, negative = inhibition is reported as inactive: 1.33%. In the case of `CC(C)(C)OC(=O)N1CCC(C(=O)N[C@@H](Cc2ccccc2)C(=O)O)(c2ccccc2)CC1`, the Potency is reported as inconclusive: 15.8 µM [activator, partial curve]. With `CC1=C(C(=O)OCc2ccc(C)cc2)C(c2ccccc2C(F)(F)F)CC(=O)N1` (stereo unspecified) the max response, negative = inhibition was inactive: -12%. In the case of `CCN(CCNC(=O)C1CC(=O)N(CCc2ccccc2)C1)c1ccccc1` (stereo unspecified), the Potency is reported as inconclusive: 39.8 µM [activator, single point]. `CCOc1ccc(C(=O)Nc2ccc3c(c2)CCCN3S(=O)(=O)c2ccc(C)cc2)cc1` was tested, and the Potency was inconclusive: 39.8 µM [inhibitor, single point]. In the case of `CCOc1ccc2nc(NC(=O)CCn3cccc3)sc2c1`, the Potency is reported as inconclusive: 39.8 µM [inhibitor, single point]. `CCN1C(=O)c2c(C)nc3ccccc3c2C1=O` was tested, and the max response, negative = inhibition was inactive: 7.16%. With `Cc1cccc(OCCn2cc(/C=N/NC(=O)c3ccncc3)c3ccccc32)c1` the Potency was inconclusive: 39.8 µM [activator, single point]. With `COc1ccc2c(c1)c1ncn(Cc3ccco3)c(=O)c1n2C` the Potency was inconclusive: 31.6 µM [activator, single point]. With `O=C(CNC(=O)c1ccco1)NCC(=O)OC(C(=O)c1ccccc1)c1ccc(Cl)cc1` (stereo unspecified) the max response, negative = inhibition was inactive: -25.9%. For `O=C(CSc1nc(Cc2ccccc2)nc2ccccc12)c1ccc2c(c1)OCCO2`, the Potency was inconclusive: 39.8 µM [inhibitor, single point]. For `CCOC(=O)Cc1csc(NC(=S)NC(=O)c2ccccc2Br)n1`, the Potency was inconclusive: 25.1 µM [inhibitor, partial curve]. In the case of `O=C(c1ccccc1)c1nn(-c2cccc(Cl)c2)c2nc(-c3ccccc3)cc(=O)n12`, the Potency is reported as active: 25.1 µM. For `COc1ccccc1N1CCN(C(=O)Cn2ncc3c2-c2cc(C)ccc2OC3)CC1`, the Potency was inconclusive: 25.1 µM [activator, single point]. With `CC(C)N(Cc1nc(-c2ccccc2)no1)C(=O)CN1C(=O)c2ccccc2C1=O` the Potency was inconclusive: 39.8 µM [activator, single point]. In the case of `O=C(OCn1nnc2ccccc2c1=O)c1cc(-c2ccccc2Cl)nc2ccccc12`, the Potency is reported as inconclusive: 39.8 µM [inhibitor, single point]. `Cc1ccc(CNC(=O)Cc2ccc(-c3ccccc3)cc2)cc1` was tested, and the Potency was inconclusive: 10 µM [inhibitor, partial curve]. For `COc1ccc(CNC(=O)c2ccc(CN3C(=O)C(C)=C(c4ccc(C)cc4)S3(=O)=O)cc2)cc1`, the Potency was inconclusive: 25.1 µM [inhibitor, partial curve, poor fit]. In the case of `O=C(Cn1nc(Cc2cccnc2)c2ccccc2c1=O)N1CCN(c2ccccc2F)CC1`, the max response, negative = inhibition is reported as inactive: -3.19%. In the case of `Cc1ccc(S(=O)(=O)N2CCCCC2)cc1NC(=O)COC(=O)Cc1cccc2ccccc12`, the Potency is reported as inconclusive: 39.8 µM [inhibitor, single point]. In the case of `CCN(c1ccccc1C)S(=O)(=O)c1nnc(NC(=O)c2ccc(OC)c(OC)c2)s1`, the max response, negative = inhibition is reported as inactive: -5.88%. In the case of `O=C(/C=C/c1ccc(O)cc1)c1ccc(NC2=C(N3CCCCC3)C(=O)c3ccccc3C2=O)cc1`, the Potency is reported as active: 12.6 µM. In the case of `O=C(NCCc1ccccc1)c1ccc2c(c1)N(Cc1ccc(Cl)cc1)C(=O)c1ccccc1S2(=O)=O`, the Potency is reported as inconclusive: 39.8 µM [inhibitor, single point]. For `COc1ccc(S(=O)(=O)N2CCC(c3cc(-c4cccc5ccccc45)n[nH]3)CC2)cc1`, the Potency was inconclusive: 31.6 µM [inhibitor, single point].
